According to PubChem BioAssay AID1030 (National Center for Advancing Translational Sciences (NCATS), 2008):
Out of some 220,000 compounds screened, about 16,000 (7.3%) were called active. Inconclusive means that the source gave no clear call. Such entries were picked first, then a sample of the others. Calls follow the shape of the dose curve; as a rule, active = well fitted inhibition curve with a large enough effect (not every such curve was filed as active); inconclusive = small, poorly fitted or top-dose-only effect, or another doubt; inactive = no such curve, though single readings can be large or run the other way. Potencies of inconclusive entries are doubtful fits and often do not repeat.

The compounds below were run against Aldehyde dehydrogenase 1A1 (Homo sapiens) (UniProt P00352) (assay: qHTS Assay for Inhibitors of Aldehyde Dehydrogenase 1 (ALDH1A1)). Conditions: Purified ALDH1A1, NADH fluorescence, propionaldehyde substrate; series mostly up to 75.3 µM.
Chain of UniProt P00352 (P00352 whole entry, looked up): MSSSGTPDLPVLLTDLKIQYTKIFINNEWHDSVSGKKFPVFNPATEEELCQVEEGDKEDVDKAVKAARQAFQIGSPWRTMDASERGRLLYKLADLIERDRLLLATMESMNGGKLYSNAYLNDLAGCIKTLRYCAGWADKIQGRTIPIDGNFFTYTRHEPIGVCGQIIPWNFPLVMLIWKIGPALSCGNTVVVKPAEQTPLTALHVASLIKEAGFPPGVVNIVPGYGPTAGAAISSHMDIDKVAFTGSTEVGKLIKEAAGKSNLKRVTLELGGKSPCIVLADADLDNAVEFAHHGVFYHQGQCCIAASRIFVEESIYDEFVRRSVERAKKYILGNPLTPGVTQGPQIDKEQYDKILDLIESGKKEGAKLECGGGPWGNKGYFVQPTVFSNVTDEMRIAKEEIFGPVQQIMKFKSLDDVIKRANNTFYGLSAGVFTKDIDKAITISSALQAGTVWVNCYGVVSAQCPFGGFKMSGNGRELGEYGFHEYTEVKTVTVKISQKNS
Potency is read from the fitted curve at half-maximal effect; tags tell the direction and shape of the fitted curve.

Potency, inactive:
O=C(CN1CCOc2ccccc21)NCc1ccc(Cl)cc1
S=C(Nc1ccc2nccnc2c1)N1CCCC1
Cc1ccccc1NCc1nnc2n1CCCCC2
c1ccc(Nc2nc(N3CCOCC3)nc(N3CCOCC3)n2)cc1
Cc1cc(C)cc(NC2=NCC(=O)N2Cc2ccccc2)c1
Cc1ccsc1C1C(C#N)=C(N)OC2=C1C(=O)CCC2 (stereo not given)
Cc1ccccc1NC(=O)c1sc2nc3c(c(-c4ccco4)c2c1N)CCC3
COc1cc(OC)c(C(=O)N2CCCC2)cc1OC
COc1ccc(OC)c(NS(=O)(=O)c2ccc3c(c2)n(C)c(=O)n3C)c1
COc1cc(OC)nc(N/N=C(\c2ccccc2)c2ccncc2)n1
O=C(N/N=C1\CCSC1)c1cc(Cl)ccc1O
O=C(CN1CCN(S(=O)(=O)c2ccc(Br)cc2)CC1)N/N=C/c1cccnc1
CCOC(=O)c1cc2c(=O)n3ccccc3nc2n(C(C)C)c1=NC(=O)c1ccncc1
O=C(CN1CCN(Cc2ccc3c(c2)OCO3)CC1)Nc1ccc2c(c1)OCCO2
c1ccc(Cc2nc3ccccc3n2Cc2ccccc2)cc1
Cc1ccc(-c2nnc(Cc3ccc(Cl)cc3)o2)cc1
Fc1ccc(SCCc2ccncc2)cc1
O=c1c(Cl)nc2cc(Cl)ccc2n1CCNc1ncc(C(F)(F)F)cc1Cl
COc1cccc(OC)c1C(=O)Nc1cc(Cl)ccc1N1CCOCC1

Potency, inconclusive:
CCN(CC)S(=O)(=O)c1cccc(-c2nnc(SCC(=O)NC)n2CCc2ccccc2)c1 25.1 µM [inhibitor, partial curve]
Cc1nc2c3cc(F)ccc3n(Cc3ccccc3F)c2s1 31.6 µM [inhibitor, single point]
O=C(O)/C(Cc1cn[nH]n1)=N\O 5.62 µM [inhibitor, partial curve, poor fit]
COc1cc(/C=N/S(=O)(=O)CCc2ccccc2)cc(OC)c1O 39.8 µM [inhibitor, single point]
COCCn1nnnc1C1(N(Cc2cc3cc(C)ccc3[nH]c2=O)CC2CCCO2)CCN(C)CC1 (stereo not given) 17.8 µM [inhibitor, partial curve]
O=S(=O)(/N=C(/Nc1cccc2ccccc12)c1ccccc1)c1cccs1 18.9 µM [inhibitor, partial curve]
CCNc1ncc2nc(C)c(=O)n(C)c2n1 28.2 µM [inhibitor, partial curve]
O=C(Nc1ccc2c(c1)C(=O)N(c1ccccc1)C2=O)c1cccs1 35.5 µM [inhibitor, partial curve]
CCOc1ccc(CC(=O)NNC(=O)/C=C/C(=O)O)cc1 39.8 µM [inhibitor, single point]
CCOc1c2ccc(C(=O)NCc3ccc4c(c3)OCO4)cc2nn1CCOC 31.6 µM [inhibitor, partial curve]
CCOC(=O)c1oc2ccccc2c1NC(=O)COc1ccc(F)cc1 31.6 µM [inhibitor, partial curve]
COC(=O)CN(c1cc([N+](=O)[O-])ccc1OC)S(C)(=O)=O 39.8 µM [inhibitor, single point]
Cc1ccc(NC(=O)c2ccc3ccccc3n2)cc1S(=O)(=O)N(C)C 31.6 µM [inhibitor, partial curve]
O=C(CSc1ncn[nH]1)N1N=C2/C(=C/c3ccccc3)CCCC2C1c1ccccc1 (stereo not given) 31.6 µM [inhibitor, partial curve]
CC1CN(CC(O)COC(c2ccc(Cl)cc2)c2ccc(Cl)cc2)CC(C)O1 (stereo not given) 39.8 µM [inhibitor, single point]
Cc1onc(-c2ccccc2)c1CNC(=O)Nc1ccccc1 39.8 µM [inhibitor, single point]
Cn1c(SCC(=O)OCc2ccccc2)nnc1-c1ccco1 31.6 µM [inhibitor, single point]
COc1cc2[nH]c(=S)n(NC(=O)CC(C)C)c(=O)c2cc1OC 44.7 µM [inhibitor, single point]
CC1(C)Cc2ccccc2-c2nc(NCCCO)n(-c3ccccc3)c(=O)c21 28.2 µM [inhibitor, partial curve]
CC(C)CNC(CC(=O)Nc1cccc([N+](=O)[O-])c1)C(=O)O (stereo not given) 31.6 µM [inhibitor, single point]
OCC1OC([S-])[C@H](O)C(O)C1O.[Au+] (stereo not given in full) 25.1 µM [inhibitor, single point]
CCC(OC(=O)C1=Cc2ccccc2OC1)C(=O)NCc1ccco1 (stereo not given) 35.5 µM [inhibitor, single point]
CCn1c(C)c(/C=N/Nc2nc3ccccc3s2)c2ccccc21 31.6 µM [inhibitor, single point]
O=C(CC1N=C2c3ccccc3N=C(SCc3ccc(F)cc3)N2C1=O)NCc1ccco1 (stereo not given) 39.8 µM [inhibitor, single point]
Cc1ccc2nc(-c3ccc(N)cc3)sc2c1S(=O)(=O)O 2.82 µM [inhibitor, partial curve]
O=C(O)C(Oc1ccc2ccc(=O)oc2c1)c1ccccc1 (stereo not given) 31.6 µM [inhibitor, single point]
C/C(=N\Nc1ccc(F)cc1F)c1cccs1 22.4 µM [inhibitor, single point]

Potency, active:
CCc1ccc2ncc(C(=O)c3ccccc3)c(N3CCOCC3)c2c1 4.47 µM
CCOc1ccc(N2C(=O)CC(N(Cc3ccco3)C(C)=O)C2=O)cc1 (stereo not given) 20 µM
COc1ccc(N=c2ssnc2Cl)cc1 1.78 µM
O=C(Nc1ccc(O)cc1C(=O)O)c1ccc2c(c1)C(=O)N(Cc1ccco1)C2=O 5.62 µM
